Experimental data as given in the supplement of paper PMC11876631.
Numbering of substitutions follows the chain as printed. In names and notes the source's numbering stands. ± gives the standard deviation of the averaged measurements. Laboratory Escherichia coli strains with one amino-acid change in an essential protein, pooled on minimal glucose agar with carbenicillin or gentamicin at twice the control MIC (plus kanamycin and chloramphenicol for the plasmids), 48 h. Fold change of barcode share against drug-free plates; higher = less susceptible. Active = above 20 in both replicates (the paper's putatively resistant). '<' = one read or none on drug, '>' = one read or none on a drug-free plate. Shares are relative, so most strains fall below 1 when a few take over. Listed are strains with at least 15 reads on both drug-free plates, and hits; most hits rest on fewer reference reads. Replicate rank correlation about 0.5. Edits are read from barcodes.

Molecular target: Escherichia coli (laboratory strain)
Assay: barcode share on antibiotic plates over drug-free plates; higher = less susceptible
Method: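 A pool of E. coli strains, each edited to carry one amino-acid change in an essential protein, was grown for 48 h on minimal glucose agar with or without antibiotic; strain barcodes were sequenced; mean of two replicates.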

[1] = antibiotic: carbenicillin, 2× MIC (3.1 µg/mL)
[2] = antibiotic: gentamicin, 2× MIC (MIC 0.45 µg/mL)

B1: murF V442W (protein)
chain: MISVTLSQLTDILNGELQGADITLDAVTTDTRKLTPGCLFVALKGERFDAHDFADQAKAGGAGALLVSRPLDIDLPQLIVKDTRLAFGELAAWVRQQVPARVVALTGSSGKTSVKEMTAAILSQCGNTLYTAGNLNNDIGVPMTLLRLTPEYDYAVIELGANHQGEIAWTVSLTRPEAALVNNLAAAHLEGFGSLAGVAKAKGEIFSGLPENGIAIMNADNNDWLNWQSVIGSRKVWRFSPNAANSDFTATNIHVTSHGTEFTLQTPTGSVDVLLPLPGRHNIANALAAAALSMSVGATLDAIKAGLANLKAVPGRLFPIQLAENQLLLDDSYNANVGSMTAAVQVLAEMPGYRVLVVGDMAELGAESEACHVQVGEAAKAAGIDRVLSVGKQSHAISTASGVGEHFADKTALITRLKLLIAEQQVITILVKGSRSAAMEEWVRALQENGTC
- fold change of barcode share [1]: 0.345 ± 0.27
- fold change of barcode share [2]: 0.0317 ± 0.034

B2: murF V442Q (protein)
chain: B1 chain with W442Q
- fold change of barcode share [1]: 0.275 ± 0.082
- fold change of barcode share [2]: < 0.00447

B3: murF V442D (protein)
chain: B1 chain with W442D
- fold change of barcode share [1]: 0.281 ± 0.13
- fold change of barcode share [2]: < 0.0116

B4: murF V442P (protein)
chain: B1 chain with W442P
- fold change of barcode share [1]: 0.23 ± 0.017
- fold change of barcode share [2]: < 0.00869

B5: murG V121W (protein)
chain: MSGQGKRLMVMAGGTGGHVFPGLAVAHHLMAQGWQVRWLGTADRMEADLVPKHGIEIDFIRISGLRGKGIKALIAAPLRIFNAWRQARAIMKAYKPDVVLGMGGYVSGPGGLAAWSLGIPWVLHEQNGIAGLTNKWLAKIATKVMQAFPGAFPNAEVVGNPVRTDVLALPLPQQRLAGREGPVRVLVVGGSQGARILNQTMPQVAAKLGDSVTIWHQSGKGSQQSVEQAYAEAGQPQHKVTEFIDDMAAAYAWADVVVCRSGALTVSEIAAAGLPALFVPFQHKDRQQYWNALPLEKAGAAKIIEQPQLSVDAVANTLAGWSRETLLTMAERARAASIPDATERVANEVSRVARA
- fold change of barcode share [1]: 0.333 ± 0.073
- fold change of barcode share [2]: 0.00814 ± 0.0085

B6: murG L100A (protein)
chain: B5 chain with L100A, W121V
- fold change of barcode share [1]: 0.3 ± 0.02
- fold change of barcode share [2]: 0.0092 ± 0.0019

B7: murG L100Q (protein)
chain: B5 chain with L100Q, W121V
- fold change of barcode share [1]: 0.254 ± 0.084
- fold change of barcode share [2]: 0.00317 ± 0.0015

B8: asnS V74A (protein)
chain: MSVVPVADVLQGRVAVDSEVTVRGWVRTRRDSKAGISFLAVYDGSCFDPVQAVINNSLPNYNEDVLRLTTGCSAIVTGKVVASPGQGQQFEIQASKVEVAGWVEDPDTYPMAAKRHSIEYLREVAHLRPRTNLIGAVARVRHTLAQALHRFFNEQGFFWVSTPLITASDTEGAGEMFRVSTLDLENLPRNDQGKVDFDKDFFGKESFLTVSGQLNGETYACALSKIYTFGPTFRAENSNTSRHLAEFWMLEPEVAFANLNDIAGLAEAMLKYVFKAVLEERADDMKFFAERVDKDAVSRLERFIEADFAQVDYTDAVTILENCGRKFENPVYWGVDLSSEHERYLAEEHFKAPVVVKNYPKDIKAFYMRLNEDGKTVAAMDVLAPGIGEIIGGSQREERLDVLDERMLEMGLNKEDYWWYRDLRRYGTVPHSGFGLGFERLIAYVTGVQNVRDVIPFPRTPRNASF
- fold change of barcode share [1]: 0.291 ± 0.15
- fold change of barcode share [2]: 0.0145 ± 0.013

B9: murG L100P (protein)
chain: B5 chain with L100P, W121V
- fold change of barcode share [1]: 0.261 ± 0.23

B10: murG V122A (protein)
chain: B5 chain with W121V, V122A
- fold change of barcode share [1]: 0.262 ± 0.037

B11: murG V122W (protein)
chain: B5 chain with W121V, V122W
- fold change of barcode share [1]: 0.137 ± 0.046

B12: murG V122Q (protein)
chain: B5 chain with W121V, V122Q
- fold change of barcode share [1]: 0.258 ± 0.11
